Broadly, the EC50 (read off the curve) is the concentration needed to bring the measured effect to its halfway point.

The assay concerns the target T1, yeast surface-displayed human IL-2 (residues 1-133) (human, UniProt P60568).
T1 construct: also called hIL-2; not shown: yeast display anchor encoded by the pCT302 vector
Briefly: yeast surface titration on hIL-2-displaying yeast, flow cytometry, normalized MFI. The procedure:
Yeast surface binding studies. […] Cells were then washed and stained with a 1:200 dilution of Alexa647-conjugated streptavidin (Thermo) in PBSA for 15 minutes at 4° C. After a final wash, cells were analyzed for antibody binding using a CytoFLEX flow cytometer (Beckman Coulter). Background-subtracted and normalized binding curves were fitted to a first-order binding model and equilibrium dissociation constant (KD) values were determined using GraphPad Prism.
For orientation: In flow cytometry, cells or beads pass a laser one at a time.

T1 sequence (P60568 21-153): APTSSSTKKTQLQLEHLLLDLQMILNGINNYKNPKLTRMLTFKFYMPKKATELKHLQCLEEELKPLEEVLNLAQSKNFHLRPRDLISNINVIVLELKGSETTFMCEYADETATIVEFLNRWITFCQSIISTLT

B1: F5111 immunocytokine (IC) LN15 (other)
heavy: QLQLQESGPGLVKPSQTLSLTCTVSGGSISSGGYYWSWIRQHPGKGLEWIGYIYYSGSTYYNPSLKSRVTISVDTSKNQFSLKLSSVTAADTAVYYCARTPTVTGDWFDPWGRGTLVTVSS[not shown - human IgG1 constant region]
light: [not shown - about 150 residues]GGGGSGGGGSGGGGSNFMLTQPHSVSESPGKTVTISCTRSSGSIASNYVQWYQQRPGSSPTTVIYEDNQRPSGVPDRFSGSIDSSSNSASLTISGLKTEDEADYYCQSYDSSNVVFGGGTKLTVLGQPKAAPSVTLFPPSSEELQANKATLVCLISDFYPGAVTVAWKADSSPVKAGVETTTPSKQSNNKYAASSYLSLTPEQWKSHRSYSCQVTHEGSTVEKTVAPTECS
notes: also called F5111 IC LN15; single-chain IL-2/F5111 immunocytokine
With B1, the “EC50 (read off the curve)” value was about 4 nM.

Values taken from patent publication US20220160891A1 (Johns Hopkins, published 2022).
